# Laboratory results as given in PubChem BioAssay (NCI).
#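 Interpolation was linear, between the two tested concentrations surrounding the appropriate level; five concentrations were tested over 48 hours in 96-well plates. GI50 is the concentration that inhibits growth by half. TGI marks complete inhibition of growth.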
# Tested on: NCI-H322M lung
# Test: DTP human tumour cell line panel, 48 h
Structure (SMILES),TGI [µM],GI50 [µM]
CCOC(=O)N1CCN(Cc2cc(=O)n3ccc(C)cc3n2)CC1,> 100,–
COC(=O)C(CCCN1C(=O)c2ccccc2C1=O)C(=O)OC,> 100,–
O=c1[nH]c(=S)[nH]c2c1C(c1ccc([N+](=O)[O-])cc1)c1c([nH]c(=S)[nH]c1=O)O2,> 100,–
C/C(CCn1[nH]c(=O)ccc1=O)=N\NC(=O)C(=O)NN,> 100,–
O=C(/C=C/c1ccc2c(c1)OCO2)Cc1nc2ncccc2[nH]c1=O,> 100,–
CC1=Nc2ccccc2OC(C)=C1N=Nc1ccc2nc(C)[nH]c2c1,> 100,–
COc1ccc(/C=c2\sc3n(c2=O)CCN=3)cc1,> 100,–
Cc1ccc(-n2c3nc(=O)[nH]c(=O)c-3cc3cc([N+](=O)[O-])ccc32)cc1,61.4,38.2
Cc1ccccc1C(=N)c1ccccc1Cc1cccc2ccccc12,> 100,–
O=C1CCC2(c3ccc(Cl)cc3)Nc3ccncc3N12 (configuration not stated),> 10,–
N[C@@H]1CCCC[C@@H]1N.O=P([O-])([O-])CN(CCN(CP(=O)([O-])[O-])CP(=O)([O-])[O-])CP(=O)([O-])[O-].[Pt+2],> 25,> 25
CCCCOC(=O)Nc1ccc(S(=O)(=O)Nc2ccccc2Cl)cc1,71.3,–
CN(C)c1cc(NN=C(c2ccc(O)cc2)c2ccc(O)cc2)c([N+](=O)[O-])cc1[N+](=O)[O-],25.5,12
COCCOc1ccc(-c2nc3ccc(-c4nc5ccc(N6CCN(C)CC6)cc5[nH]4)cc3[nH]2)cc1,9.93,3.07
COC(=O)[C@@H](O)[C@](O)(CCC(C)C)C(=O)O[C@@H]1C(OC)=C[C@]23CCCN2CCc2cc4c(cc2[C@H]13)OCO4,20,–
c1ccc2c(c1)Cn1c-2nc2ccccc21,> 100,–
Cc1cc2c(C)[nH]nc2c(C(=O)O)c1C,> 100,–
Cc1ccc(NC(=O)CC2Sc3ccccc3NC2=O)cc1C (configuration not stated),> 100,–
Cn1ccc2c3c(Oc4ccc(NC(N)=O)cc4)ccnc3ccc21,> 100,> 100
Cc1cc(C)nc(NS(=O)(=O)c2ccc(NC(=O)c3ccc4nc5ccccc5c(Nc5ccc(S(N)(=O)=O)cc5)c4c3)cc2)n1,> 100,–
CCC(=O)NCC1CCCN2CCCCC12 (configuration not stated),> 100,–
Oc1ccc2c(c1)c1c(n2CCN2CCOCC2)-c2ccccc2CC1,> 100,–
